{"source": "the BET-seq Pho4 binding data (Le et al. 2018)", "note": "The other results are listed elsewhere or left out. Values were computed here from the reads of four pooled replicates and scatter widely."}
{"target": "T1, Pho4 (S. cerevisiae) (UniProt P07270)", "T1 sequence": "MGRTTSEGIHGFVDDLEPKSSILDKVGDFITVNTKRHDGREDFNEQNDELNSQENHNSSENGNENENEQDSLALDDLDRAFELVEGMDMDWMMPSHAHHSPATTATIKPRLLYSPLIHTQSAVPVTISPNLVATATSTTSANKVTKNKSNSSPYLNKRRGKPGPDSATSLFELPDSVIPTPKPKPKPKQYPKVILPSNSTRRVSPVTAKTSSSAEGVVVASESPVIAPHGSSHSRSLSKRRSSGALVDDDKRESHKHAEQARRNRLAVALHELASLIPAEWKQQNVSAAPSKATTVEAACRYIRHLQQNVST", "test": "relative binding free energy (BET-seq); higher = weaker binding", "conditions": "reference: library average", "units": {"relative binding free energy": "kcal/mol"}}
{"sequence": "TAGAGCACGTGAGGGC", "relative binding free energy": 0.09}
{"sequence": "GGTATCACGTGAAAGG", "relative binding free energy": 0.5}
{"sequence": "GGGAACACGTGTTAGT", "relative binding free energy": 0.09}
{"sequence": "GAAGTCACGTGACTGG", "relative binding free energy": 0.39}
{"sequence": "ACGGACACGTGGGTAG", "relative binding free energy": 0.01}
{"sequence": "GGCTGCACGTGGAGCG", "relative binding free energy": 0.06}
{"sequence": "ATATGCACGTGGGGTC", "relative binding free energy": -0.38}
{"sequence": "TAAATCACGTGCGTGA", "relative binding free energy": 0.17}
{"sequence": "AATGGCACGTGCGTAT", "relative binding free energy": -0.25}
{"sequence": "CGGGTCACGTGTTTGT", "relative binding free energy": 0.08}
{"sequence": "TCCGGCACGTGTTTGT", "relative binding free energy": 0}
{"sequence": "TTGGGCACGTGGCAGA", "relative binding free energy": -0.09}
{"sequence": "GACTTCACGTGGTATG", "relative binding free energy": 0.26}
{"sequence": "TGAAGCACGTGTATAG", "relative binding free energy": -0.01}
{"sequence": "GTATGCACGTGAGTGA", "relative binding free energy": 0.18}
{"sequence": "GCTGCCACGTGGTGGG", "relative binding free energy": -0.15}
{"sequence": "GGGGACACGTGTTGGT", "relative binding free energy": 0.08}
{"sequence": "TAGTGCACGTGCTAGG", "relative binding free energy": -0.08}
{"sequence": "GAAGGCACGTGGGCGT", "relative binding free energy": -0.26}
{"sequence": "TCGTACACGTGATGGA", "relative binding free energy": 0.34}
{"sequence": "AGTGGCACGTGTGTAC", "relative binding free energy": -0.19}
{"sequence": "TTTAGCACGTGGGTGT", "relative binding free energy": -0.11}
{"sequence": "ATGTTCACGTGATTGA", "relative binding free energy": 0.34}
{"sequence": "GTGTACACGTGCGTTA", "relative binding free energy": 0.05}
{"sequence": "TAGTACACGTGCGCGG", "relative binding free energy": -0.04}
{"sequence": "TTTGGCACGTGTGACT", "relative binding free energy": 0.09}
{"sequence": "GTACGCACGTGATGTG", "relative binding free energy": 0.01}
{"sequence": "TGAAGCACGTGCGATG", "relative binding free energy": -0.07}
{"sequence": "TGGTTCACGTGTCCGT", "relative binding free energy": 0.37}
{"sequence": "CTTTTCACGTGTCGTA", "relative binding free energy": 0.29}
{"sequence": "AAGGTCACGTGAGTGT", "relative binding free energy": 0.33}
{"sequence": "TGGGTCACGTGAATAT", "relative binding free energy": 0.35}
{"sequence": "CGTCGCACGTGGGGTT", "relative binding free energy": -0.26}
{"sequence": "CTTGCCACGTGTGTTT", "relative binding free energy": -0.16}
{"sequence": "ATTAACACGTGGTGAT", "relative binding free energy": -0.1}
{"sequence": "TGCTTCACGTGGTGGA", "relative binding free energy": 0.18}
{"sequence": "TGTTTCACGTGCATCT", "relative binding free energy": 0.21}
{"sequence": "GGTTACACGTGGATTT", "relative binding free energy": 0.18}
{"sequence": "TGTTTCACGTGCGCTA", "relative binding free energy": 0.19}
{"sequence": "TAGTACACGTGGCGGC", "relative binding free energy": 0.02}
{"sequence": "TGGAGCACGTGGGGTA", "relative binding free energy": -0.2}
{"sequence": "ATGTACACGTGCGGTG", "relative binding free energy": 0.01}
{"sequence": "ATAATCACGTGTGATG", "relative binding free energy": 0.05}
{"sequence": "TTGAGCACGTGAAGGC", "relative binding free energy": 0.14}
{"sequence": "GAGAGCACGTGGATAG", "relative binding free energy": 0.05}
{"sequence": "GATCGCACGTGTTGGA", "relative binding free energy": 0.09}
{"sequence": "GTGCGCACGTGGGTTC", "relative binding free energy": -0.23}
{"sequence": "TTCAGCACGTGTGTTA", "relative binding free energy": -0.07}
{"sequence": "AGTTGCACGTGGCATG", "relative binding free energy": -0.14}
{"sequence": "CCGGTCACGTGTGTGT", "relative binding free energy": 0.08}
{"sequence": "GTCTCCACGTGGGTTG", "relative binding free energy": -0.03}
{"sequence": "CTGGCCACGTGAGTTG", "relative binding free energy": 0.08}
{"sequence": "ATTTTCACGTGATGGC", "relative binding free energy": 0.33}
{"sequence": "GTAGTCACGTGAGTGG", "relative binding free energy": 0.21}
{"sequence": "CTGCGCACGTGGGAGG", "relative binding free energy": -0.33}
{"sequence": "TTATTCACGTGGCCTG", "relative binding free energy": 0.36}
{"sequence": "TACGTCACGTGGGTGA", "relative binding free energy": -0.1}
{"sequence": "TTAGTCACGTGAATTG", "relative binding free energy": 0.31}
{"sequence": "TTGGGCACGTGTAAAT", "relative binding free energy": -0.02}
{"sequence": "TATGACACGTGTGATT", "relative binding free energy": 0.04}
{"sequence": "AGATTCACGTGGCGGT", "relative binding free energy": 0.2}
{"sequence": "GTTGCCACGTGGGTAC", "relative binding free energy": -0.14}
{"sequence": "GTTTTCACGTGTTAGG", "relative binding free energy": 0.34}
{"sequence": "TAACGCACGTGTAGGC", "relative binding free energy": 0.19}
{"sequence": "AATTTCACGTGTCGTT", "relative binding free energy": 0.23}
{"sequence": "TAAAGCACGTGTTTGT", "relative binding free energy": -0.12}
{"sequence": "GTGGCCACGTGTTTAA", "relative binding free energy": 0}
{"sequence": "ATATTCACGTGCTTAT", "relative binding free energy": 0.19}
{"sequence": "GGTAGCACGTGATGGG", "relative binding free energy": 0}
{"sequence": "GGTTGCACGTGTGGTC", "relative binding free energy": -0.01}
{"sequence": "GTAGGCACGTGAAGCG", "relative binding free energy": 0.15}
{"sequence": "TGTGTCACGTGAAGAA", "relative binding free energy": 0.15}
{"sequence": "TGGTTCACGTGTTTAC", "relative binding free energy": 0.3}
{"sequence": "GCGTACACGTGTGCGT", "relative binding free energy": 0.21}
{"sequence": "AGGTTCACGTGATTTT", "relative binding free energy": 0.41}
{"sequence": "GATGGCACGTGTGGTA", "relative binding free energy": 0.02}
{"sequence": "GGGGGCACGTGAAGGT", "relative binding free energy": 0.17}
{"sequence": "TGATACACGTGGTTCT", "relative binding free energy": -0.08}
{"sequence": "GAGATCACGTGGAGTT", "relative binding free energy": 0.28}
{"sequence": "CGGTTCACGTGGTCGG", "relative binding free energy": 0.1}
{"sequence": "TATAACACGTGATAGG", "relative binding free energy": 0.04}
{"sequence": "GGTATCACGTGATCGT", "relative binding free energy": 0.22}
{"sequence": "AGTATCACGTGTAGTA", "relative binding free energy": 0.09}
{"sequence": "TCTGTCACGTGAAATG", "relative binding free energy": 0.36}
{"sequence": "GTATGCACGTGACTGT", "relative binding free energy": -0.06}
{"sequence": "ATTTACACGTGCGGGA", "relative binding free energy": 0.11}
{"sequence": "GGAAACACGTGTATGG", "relative binding free energy": 0.02}
{"sequence": "TTCGTCACGTGGCAGT", "relative binding free energy": 0.05}
{"sequence": "TTCGTCACGTGGTATT", "relative binding free energy": 0.05}
{"sequence": "CGTCACACGTGGGGGG", "relative binding free energy": -0.23}
{"sequence": "ATATCCACGTGAGGGT", "relative binding free energy": 0.16}
{"sequence": "GAGTGCACGTGCGTGG", "relative binding free energy": -0.1}
{"sequence": "TGGGGCACGTGTAGAA", "relative binding free energy": 0.02}
{"sequence": "TTGCACACGTGGTTGC", "relative binding free energy": 0.05}
{"sequence": "TGGTACACGTGGACGG", "relative binding free energy": 0.08}
{"sequence": "ATTTCCACGTGAGTTT", "relative binding free energy": 0.23}
{"sequence": "ATTCTCACGTGTTAAT", "relative binding free energy": 0.29}
{"sequence": "ATGTGCACGTGGCCAG", "relative binding free energy": -0.08}
{"sequence": "TGCAACACGTGTAGTT", "relative binding free energy": 0.09}
{"sequence": "GTTGACACGTGGTTTA", "relative binding free energy": 0.07}
{"sequence": "TCGGACACGTGGAGGT", "relative binding free energy": 0.1}
{"sequence": "GGGATCACGTGTAGTG", "relative binding free energy": 0.23}
{"sequence": "GTATGCACGTGATTGA", "relative binding free energy": 0.17}
{"sequence": "TATCACACGTGTAAGT", "relative binding free energy": 0.26}
{"sequence": "GGAGGCACGTGGCAAG", "relative binding free energy": -0.17}
{"sequence": "TTATCCACGTGGGTTT", "relative binding free energy": -0.08}
{"sequence": "GGGGACACGTGATGCT", "relative binding free energy": 0.18}
{"sequence": "TTTGCCACGTGATTTA", "relative binding free energy": 0}
{"sequence": "TCGGTCACGTGGGCTA", "relative binding free energy": -0.02}
{"sequence": "AGTGACACGTGTGTTG", "relative binding free energy": 0.02}
{"sequence": "AGTTTCACGTGTTAAT", "relative binding free energy": 0.29}
{"sequence": "TGTCGCACGTGGTGGG", "relative binding free energy": -0.08}
{"sequence": "CGGTGCACGTGGACGT", "relative binding free energy": 0.04}
{"sequence": "TTGCTCACGTGTTTGA", "relative binding free energy": 0.11}
{"sequence": "ATATGCACGTGTTTTC", "relative binding free energy": 0}
{"sequence": "GAAGGCACGTGCTGTT", "relative binding free energy": -0.07}
{"sequence": "GGTATCACGTGACAGG", "relative binding free energy": 0.26}
{"sequence": "ACTGGCACGTGGTATT", "relative binding free energy": -0.19}
{"sequence": "AAAGACACGTGGGGTT", "relative binding free energy": -0.05}
{"sequence": "GTGAGCACGTGAGGGT", "relative binding free energy": 0.17}
{"sequence": "AGGCGCACGTGGGCGG", "relative binding free energy": -0.29}
{"sequence": "GGTTTCACGTGTTTCA", "relative binding free energy": 0.41}
{"sequence": "ATGTTCACGTGATCTA", "relative binding free energy": 0.27}
{"sequence": "TGGGGCACGTGCAGGC", "relative binding free energy": -0.25}
{"sequence": "TATAACACGTGGAGTA", "relative binding free energy": 0.02}
{"sequence": "TAAGGCACGTGGGCGG", "relative binding free energy": -0.33}
{"sequence": "GCGTACACGTGGGTCG", "relative binding free energy": 0.08}
{"sequence": "TTATTCACGTGTTCAT", "relative binding free energy": 0.32}
{"sequence": "TTAAGCACGTGTAAGG", "relative binding free energy": -0.03}
{"sequence": "GAGTGCACGTGGGCTC", "relative binding free energy": -0.05}
{"sequence": "TCGGCCACGTGGGGAG", "relative binding free energy": -0.26}
{"sequence": "TATGCCACGTGTGTTG", "relative binding free energy": -0.18}
{"sequence": "TTGATCACGTGTGAGG", "relative binding free energy": 0.27}
{"sequence": "GGCTGCACGTGGTAAA", "relative binding free energy": 0.18}
{"sequence": "GACGACACGTGGGGTG", "relative binding free energy": 0.06}
{"sequence": "TAATTCACGTGTGAAA", "relative binding free energy": 0.48}
{"sequence": "GGGGGCACGTGTGCCT", "relative binding free energy": -0.25}
{"sequence": "CGTTTCACGTGAAGTG", "relative binding free energy": 0.35}
{"sequence": "CGTAACACGTGGGTGG", "relative binding free energy": -0.22}
{"sequence": "ATAGTCACGTGCATTT", "relative binding free energy": 0.06}
{"sequence": "TTACACACGTGGGGGC", "relative binding free energy": -0.02}
{"sequence": "TTGCTCACGTGTAATG", "relative binding free energy": 0.23}
{"sequence": "TGATGCACGTGGGTCG", "relative binding free energy": -0.14}
{"sequence": "GGGCGCACGTGTGTCA", "relative binding free energy": 0.06}
{"sequence": "ATGGTCACGTGTAAAA", "relative binding free energy": 0.2}
{"sequence": "AAGAACACGTGCAGTT", "relative binding free energy": 0.38}
